# Test results published in paper PMC12820563, “FoxP3 forms a head-to-head dimer in vivo and stabilizes its multimerization on adjacent microsatellites”.
# This is one part of the list.
# Target: T1, MBP-FoxP1dN (Mus musculus, UniProt P58462 326-579)
# T1 sequence: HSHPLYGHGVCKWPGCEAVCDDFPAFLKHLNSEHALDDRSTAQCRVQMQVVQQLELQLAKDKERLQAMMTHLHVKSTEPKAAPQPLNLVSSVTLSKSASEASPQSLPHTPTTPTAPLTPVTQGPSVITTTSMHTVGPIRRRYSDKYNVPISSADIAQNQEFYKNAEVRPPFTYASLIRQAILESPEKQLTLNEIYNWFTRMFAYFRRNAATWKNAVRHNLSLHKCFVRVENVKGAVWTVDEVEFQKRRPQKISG
# Assay: PD-seq (MBP pull-down with sequencing); 20 mM Tris-HCl pH 7.5, 100 mM NaCl, 1.5 mM MgCl2, 0.4 uM protein, 0.1 uM dsDNA library, 30 min, room temperature, amylose pull-down; high values mean tight binding
# Conditions: protein: recombinant; tags: His6-MBP; chain copies: 2; dsDNA, one strand shown
# Procedure, shortened: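 A fragment of mouse FoxP3 or FoxP1 without its N-terminus, carrying a His6-MBP tag and produced in E. coli, was combined at 0.4 µM with a 0.1 µM degenerate double-stranded DNA library filled in with Klenow. The mixture sat for 30 min at room temperature in Tris pH 7.5 buffer containing NaCl and MgCl2. Protein–DNA complexes were captured on amylose resin, washed three times, and the DNA was freed with proteinase K, barcoded by PCR and sequenced on Illumina. Binding is expressed as reads-per-million enrichment of pull-down over input, with replicates pooled.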
row,Sequence,binding signal
1,GATGATTGTTCTCCCAGCTGATGAATTACGTCGATCGAGTAAACAAATTTTCCTAATCTTTCTGTTCAAGCGCCATCTAC,1.04 RPM ratio (pull-down/input)
2,GATGATTGTTCTCCCAGCTGATGAATTGCAGGGCTCGAGTAAACAAATTTTCCTAATCTTTCTGTTCAAGCGCCATCTAC,0.88 RPM ratio (pull-down/input)
3,GATGATTGTTCTCCCAGCTGATGAATTTAACTTATCGAGTAAACAAATTTTCCTAATCTTTCTGTTCAAGCGCCATCTAC,0.953 RPM ratio (pull-down/input)
4,GATGATTGTTCTCCCAGCTGATGAATTGCCTCAGTCGAGTAAACAAATTTTCCTAATCTTTCTGTTCAAGCGCCATCTAC,0.999 RPM ratio (pull-down/input)
5,GATGATTGTTCTCCCAGCTGATGAATTAGCAGTCTCGAGTAAACAAATTTTCCTAATCTTTCTGTTCAAGCGCCATCTAC,0.877 RPM ratio (pull-down/input)
6,GATGATTGTTCTCCCAGCTGATGAATTGCCCTAATCGAGTAAACAAATTTTCCTAATCTTTCTGTTCAAGCGCCATCTAC,1.03 RPM ratio (pull-down/input)
7,GATGATTGTTCTCCCAGCTGATGAATTCTAAGCCTCGAGTAAACAAATTTTCCTAATCTTTCTGTTCAAGCGCCATCTAC,0.808 RPM ratio (pull-down/input)
8,GATGATTGTTCTCCCAGCTGATGAATTACCGAATTCGAGTAAACAAATTTTCCTAATCTTTCTGTTCAAGCGCCATCTAC,1.04 RPM ratio (pull-down/input)
9,GATGATTGTTCTCCCAGCTGATGAATTGAGACCGTCGAGTAAACAAATTTTCCTAATCTTTCTGTTCAAGCGCCATCTAC,0.852 RPM ratio (pull-down/input)
10,GATGATTGTTCTCCCAGCTGATGAATTTCGTATGTCGAGTAAACAAATTTTCCTAATCTTTCTGTTCAAGCGCCATCTAC,0.993 RPM ratio (pull-down/input)
11,GATGATTGTTCTCCCAGCTGATGAATTCCCCAATTCGAGTAAACAAATTTTCCTAATCTTTCTGTTCAAGCGCCATCTAC,0.882 RPM ratio (pull-down/input)
12,GATGATTGTTCTCCCAGCTGATGAATTAATACGATCGAGTAAACAAATTTTCCTAATCTTTCTGTTCAAGCGCCATCTAC,1.08 RPM ratio (pull-down/input)
13,GATGATTGTTCTCCCAGCTGATGAATTACATGAATCGAGTAAACAAATTTTCCTAATCTTTCTGTTCAAGCGCCATCTAC,1.4 RPM ratio (pull-down/input)
14,GATGATTGTTCTCCCAGCTGATGAATTTTATCGGTCGAGTAAACAAATTTTCCTAATCTTTCTGTTCAAGCGCCATCTAC,0.946 RPM ratio (pull-down/input)
15,GATGATTGTTCTCCCAGCTGATGAATTCCGTTACTCGAGTAAACAAATTTTCCTAATCTTTCTGTTCAAGCGCCATCTAC,0.912 RPM ratio (pull-down/input)
16,GATGATTGTTCTCCCAGCTGATGAATTACACCAGTCGAGTAAACAAATTTTCCTAATCTTTCTGTTCAAGCGCCATCTAC,1.06 RPM ratio (pull-down/input)
17,GATGATTGTTCTCCCAGCTGATGAATTGTAAATGTCGAGTAAACAAATTTTCCTAATCTTTCTGTTCAAGCGCCATCTAC,1.2 RPM ratio (pull-down/input)
18,GATGATTGTTCTCCCAGCTGATGAATTTTCACCCTCGAGTAAACAAATTTTCCTAATCTTTCTGTTCAAGCGCCATCTAC,0.852 RPM ratio (pull-down/input)
19,GATGATTGTTCTCCCAGCTGATGAATTCTCTTCGTCGAGTAAACAAATTTTCCTAATCTTTCTGTTCAAGCGCCATCTAC,0.808 RPM ratio (pull-down/input)
20,GATGATTGTTCTCCCAGCTGATGAATTGCGACGGTCGAGTAAACAAATTTTCCTAATCTTTCTGTTCAAGCGCCATCTAC,0.983 RPM ratio (pull-down/input)
21,GATGATTGTTCTCCCAGCTGATGAATTACGGCCTTCGAGTAAACAAATTTTCCTAATCTTTCTGTTCAAGCGCCATCTAC,0.977 RPM ratio (pull-down/input)

row,Sequence,binding signal
1,GATGATTGTTCTCCCAGCTGATGAATTAACGCTCTCGAGTAAACAAATTTTCCTAATCTTTCTGTTCAAGCGCCATCTAC,0.86 RPM ratio (pull-down/input)
2,GATGATTGTTCTCCCAGCTGATGAATTGGCATTCTCGAGTAAACAAATTTTCCTAATCTTTCTGTTCAAGCGCCATCTAC,1.07 RPM ratio (pull-down/input)
3,GATGATTGTTCTCCCAGCTGATGAATTACCACACTCGAGTAAACAAATTTTCCTAATCTTTCTGTTCAAGCGCCATCTAC,1.07 RPM ratio (pull-down/input)
4,GATGATTGTTCTCCCAGCTGATGAATTTATAAAGTCGAGTAAACAAATTTTCCTAATCTTTCTGTTCAAGCGCCATCTAC,1.14 RPM ratio (pull-down/input)
5,GATGATTGTTCTCCCAGCTGATGAATTTCCCGATTCGAGTAAACAAATTTTCCTAATCTTTCTGTTCAAGCGCCATCTAC,0.845 RPM ratio (pull-down/input)
6,GATGATTGTTCTCCCAGCTGATGAATTTGTCTGATCGAGTAAACAAATTTTCCTAATCTTTCTGTTCAAGCGCCATCTAC,1.04 RPM ratio (pull-down/input)
7,GATGATTGTTCTCCCAGCTGATGAATTCAATGAATCGAGTAAACAAATTTTCCTAATCTTTCTGTTCAAGCGCCATCTAC,0.93 RPM ratio (pull-down/input)
8,GATGATTGTTCTCCCAGCTGATGAATTCCAGTGTTCGAGTAAACAAATTTTCCTAATCTTTCTGTTCAAGCGCCATCTAC,0.961 RPM ratio (pull-down/input)
9,GATGATTGTTCTCCCAGCTGATGAATTCGAACCATCGAGTAAACAAATTTTCCTAATCTTTCTGTTCAAGCGCCATCTAC,0.867 RPM ratio (pull-down/input)
10,GATGATTGTTCTCCCAGCTGATGAATTTGCTCATTCGAGTAAACAAATTTTCCTAATCTTTCTGTTCAAGCGCCATCTAC,0.978 RPM ratio (pull-down/input)
11,GATGATTGTTCTCCCAGCTGATGAATTAACAGGGTCGAGTAAACAAATTTTCCTAATCTTTCTGTTCAAGCGCCATCTAC,0.876 RPM ratio (pull-down/input)
12,GATGATTGTTCTCCCAGCTGATGAATTGCAGGTATCGAGTAAACAAATTTTCCTAATCTTTCTGTTCAAGCGCCATCTAC,1.22 RPM ratio (pull-down/input)
13,GATGATTGTTCTCCCAGCTGATGAATTTGCACCATCGAGTAAACAAATTTTCCTAATCTTTCTGTTCAAGCGCCATCTAC,1.05 RPM ratio (pull-down/input)
14,GATGATTGTTCTCCCAGCTGATGAATTCATTAGCTCGAGTAAACAAATTTTCCTAATCTTTCTGTTCAAGCGCCATCTAC,0.842 RPM ratio (pull-down/input)
15,GATGATTGTTCTCCCAGCTGATGAATTTGTCCTCTCGAGTAAACAAATTTTCCTAATCTTTCTGTTCAAGCGCCATCTAC,1.07 RPM ratio (pull-down/input)
16,GATGATTGTTCTCCCAGCTGATGAATTGTTGGAGTCGAGTAAACAAATTTTCCTAATCTTTCTGTTCAAGCGCCATCTAC,0.962 RPM ratio (pull-down/input)
17,GATGATTGTTCTCCCAGCTGATGAATTCAATTTCTCGAGTAAACAAATTTTCCTAATCTTTCTGTTCAAGCGCCATCTAC,0.927 RPM ratio (pull-down/input)
18,GATGATTGTTCTCCCAGCTGATGAATTGCACTTCTCGAGTAAACAAATTTTCCTAATCTTTCTGTTCAAGCGCCATCTAC,1.35 RPM ratio (pull-down/input)
19,GATGATTGTTCTCCCAGCTGATGAATTAGGGAGGTCGAGTAAACAAATTTTCCTAATCTTTCTGTTCAAGCGCCATCTAC,0.833 RPM ratio (pull-down/input)
20,GATGATTGTTCTCCCAGCTGATGAATTCGTCACATCGAGTAAACAAATTTTCCTAATCTTTCTGTTCAAGCGCCATCTAC,0.945 RPM ratio (pull-down/input)
21,GATGATTGTTCTCCCAGCTGATGAATTTGACCCATCGAGTAAACAAATTTTCCTAATCTTTCTGTTCAAGCGCCATCTAC,0.851 RPM ratio (pull-down/input)

row,Sequence,binding signal
1,GATGATTGTTCTCCCAGCTGATGAATTACGCCTGTCGAGTAAACAAATTTTCCTAATCTTTCTGTTCAAGCGCCATCTAC,0.963 RPM ratio (pull-down/input)
2,GATGATTGTTCTCCCAGCTGATGAATTGTGGGTTTCGAGTAAACAAATTTTCCTAATCTTTCTGTTCAAGCGCCATCTAC,1.05 RPM ratio (pull-down/input)
3,GATGATTGTTCTCCCAGCTGATGAATTGTCGTCCTCGAGTAAACAAATTTTCCTAATCTTTCTGTTCAAGCGCCATCTAC,0.988 RPM ratio (pull-down/input)
4,GATGATTGTTCTCCCAGCTGATGAATTGAGCCCCTCGAGTAAACAAATTTTCCTAATCTTTCTGTTCAAGCGCCATCTAC,0.738 RPM ratio (pull-down/input)
5,GATGATTGTTCTCCCAGCTGATGAATTTGCTGAATCGAGTAAACAAATTTTCCTAATCTTTCTGTTCAAGCGCCATCTAC,0.998 RPM ratio (pull-down/input)
6,GATGATTGTTCTCCCAGCTGATGAATTAACGAGATCGAGTAAACAAATTTTCCTAATCTTTCTGTTCAAGCGCCATCTAC,0.923 RPM ratio (pull-down/input)
7,GATGATTGTTCTCCCAGCTGATGAATTCGGGTGTTCGAGTAAACAAATTTTCCTAATCTTTCTGTTCAAGCGCCATCTAC,0.849 RPM ratio (pull-down/input)
8,GATGATTGTTCTCCCAGCTGATGAATTTTCGAGTTCGAGTAAACAAATTTTCCTAATCTTTCTGTTCAAGCGCCATCTAC,0.959 RPM ratio (pull-down/input)
9,GATGATTGTTCTCCCAGCTGATGAATTTCCGGTGTCGAGTAAACAAATTTTCCTAATCTTTCTGTTCAAGCGCCATCTAC,0.877 RPM ratio (pull-down/input)
10,GATGATTGTTCTCCCAGCTGATGAATTGTCCGGATCGAGTAAACAAATTTTCCTAATCTTTCTGTTCAAGCGCCATCTAC,0.87 RPM ratio (pull-down/input)
11,GATGATTGTTCTCCCAGCTGATGAATTTCGCAATTCGAGTAAACAAATTTTCCTAATCTTTCTGTTCAAGCGCCATCTAC,0.971 RPM ratio (pull-down/input)
12,GATGATTGTTCTCCCAGCTGATGAATTAGAGCGGTCGAGTAAACAAATTTTCCTAATCTTTCTGTTCAAGCGCCATCTAC,0.807 RPM ratio (pull-down/input)
13,GATGATTGTTCTCCCAGCTGATGAATTCGCTCTATCGAGTAAACAAATTTTCCTAATCTTTCTGTTCAAGCGCCATCTAC,0.853 RPM ratio (pull-down/input)
14,GATGATTGTTCTCCCAGCTGATGAATTGCACATATCGAGTAAACAAATTTTCCTAATCTTTCTGTTCAAGCGCCATCTAC,1.36 RPM ratio (pull-down/input)
15,GATGATTGTTCTCCCAGCTGATGAATTGTTGTCATCGAGTAAACAAATTTTCCTAATCTTTCTGTTCAAGCGCCATCTAC,2.36 RPM ratio (pull-down/input)
16,GATGATTGTTCTCCCAGCTGATGAATTGTATAAGTCGAGTAAACAAATTTTCCTAATCTTTCTGTTCAAGCGCCATCTAC,1.02 RPM ratio (pull-down/input)
17,GATGATTGTTCTCCCAGCTGATGAATTGGTACTTTCGAGTAAACAAATTTTCCTAATCTTTCTGTTCAAGCGCCATCTAC,1.08 RPM ratio (pull-down/input)
18,GATGATTGTTCTCCCAGCTGATGAATTGTTGATTTCGAGTAAACAAATTTTCCTAATCTTTCTGTTCAAGCGCCATCTAC,2.42 RPM ratio (pull-down/input)
19,GATGATTGTTCTCCCAGCTGATGAATTGTGTGGTTCGAGTAAACAAATTTTCCTAATCTTTCTGTTCAAGCGCCATCTAC,1.15 RPM ratio (pull-down/input)
20,GATGATTGTTCTCCCAGCTGATGAATTTGAGTCGTCGAGTAAACAAATTTTCCTAATCTTTCTGTTCAAGCGCCATCTAC,0.906 RPM ratio (pull-down/input)
21,GATGATTGTTCTCCCAGCTGATGAATTTGCACCTTCGAGTAAACAAATTTTCCTAATCTTTCTGTTCAAGCGCCATCTAC,0.956 RPM ratio (pull-down/input)
